Results published in PubChem BioAssay AID1030 (National Center for Advancing Translational Sciences (NCATS), 2008).
In all, about 220,000 compounds went through this assay and about 16,000 (7.3%) were called active. This list was built around the results that the source calls inconclusive (neither active nor inactive); the mix of calls is not that of the screen. Calls come from the whole dose curve; as a rule, active = well fitted inhibition curve with a large enough effect (not every such curve was filed as active); inconclusive = small, poorly fitted or top-dose-only effect, or another doubt; inactive = no such curve, though single readings can be large or run the other way. No potency is given beside an inconclusive call; the fits are too rough.

Target: Aldehyde dehydrogenase 1A1 (Homo sapiens) (UniProt P00352)
Assay: qHTS Assay for Inhibitors of Aldehyde Dehydrogenase 1 (ALDH1A1)
Details: Purified ALDH1A1, NADH fluorescence, propionaldehyde substrate; series mostly up to 75.3 µM
Potency is the fitted concentration of half-maximal effect; tags give direction and shape of the fitted curve.

Sequence of UniProt P00352 (P00352 whole entry, looked up): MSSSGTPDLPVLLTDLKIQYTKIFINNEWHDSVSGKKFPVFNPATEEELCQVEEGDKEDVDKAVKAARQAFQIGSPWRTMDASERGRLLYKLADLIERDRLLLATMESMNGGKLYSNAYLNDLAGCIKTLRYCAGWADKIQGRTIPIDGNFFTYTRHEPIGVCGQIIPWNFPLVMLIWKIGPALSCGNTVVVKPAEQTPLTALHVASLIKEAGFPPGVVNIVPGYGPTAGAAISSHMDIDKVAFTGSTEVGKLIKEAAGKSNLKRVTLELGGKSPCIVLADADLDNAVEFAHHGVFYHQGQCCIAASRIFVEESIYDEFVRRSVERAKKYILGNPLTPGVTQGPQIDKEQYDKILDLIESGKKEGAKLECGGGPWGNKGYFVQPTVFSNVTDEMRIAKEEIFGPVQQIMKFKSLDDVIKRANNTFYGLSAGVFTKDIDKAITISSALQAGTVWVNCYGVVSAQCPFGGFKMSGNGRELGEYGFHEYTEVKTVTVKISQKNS

Row | Compound | Potency
1 | COc1ccccc1NCC(O)Cn1c2ccccc2c2ccccc21 (stereo not given) | inactive
2 | CCOC(=O)C(C)N1C(=O)S/C(=C/c2cc(C)n(-c3ccncc3)c2C)C1=O (stereo not given) | inconclusive [inhibitor, single point]
3 | FC(F)(F)c1cnc(Oc2ccccc2-c2nnc(-c3ccc(Cl)cc3)o2)c(Cl)c1 | inconclusive [inhibitor, single point]
4 | Cc1ccc(C2C(C(=O)c3sc(C)nc3C)=C(O)C(=O)N2CCCN(C)C)o1 (stereo not given) | inactive
5 | CCOc1ccc2[nH]c(=O)c(C(c3nnnn3CCOC)N3CCOCC3)cc2c1 (stereo not given) | inconclusive [inhibitor, partial curve]
6 | Nc1ccc2nc(-c3ccc(Cl)cc3)[nH]c2c1 | inconclusive [inhibitor, partial curve]
7 | O=C1CCN(C(=O)Nc2cccc(Cl)c2)N1 | inconclusive [inhibitor, single point]
8 | O=C(CSc1nc2ccccc2c(=O)n1-c1ccccc1)c1c[nH]c2ccccc12 | inconclusive [inhibitor, single point]
9 | COc1ccc(-n2cnnc2SCC(=O)N2CCN(c3ccccc3)CC2)cc1 | inconclusive [inhibitor, partial curve]
10 | O=C(COC(=O)c1c[nH]c(=O)[nH]c1=O)Nc1ccccc1Br | inactive
11 | CN(C)S(=O)(=O)N(CC(=O)Nc1ccccc1C(F)(F)F)c1ccccc1 | inconclusive [inhibitor, single point]
12 | COc1cccc(CNC(=O)C2=C(C)C(=O)OC23CCC(C)CC3)c1 (stereo not given) | inactive
13 | O=C(CN1C(=O)C2CC=CCC2C1=O)Nc1nc2ccccc2s1 (stereo not given) | inconclusive [inhibitor, single point]
14 | COCC(C)NCc1cccc2ccccc12 (stereo not given) | inconclusive [inhibitor, single point]
15 | O=c1oc2c(CN3CCCCC3)c(O)ccc2c2c1CCCCC2 | inconclusive [inhibitor, partial curve]
16 | C=CCN1C(=O)C2C3C=CC(C2C1=O)C1C2C(=O)N(CC=C)C(=O)C2C31 (stereo not given) | active: 0.708 µM
17 | COc1cc2[nH]c(=S)n(Cc3ccco3)c(=O)c2cc1OC | active: 0.794 µM
18 | Cc1nc2c(C(=O)N3CCCC3)cnn2c(C)c1Cc1c(F)cccc1Cl | inconclusive [inhibitor, single point]
19 | Fc1ccccc1Cc1noc(CN2CCCC(CN3CCOCC3)C2)n1 (stereo not given) | inactive
20 | COc1ccc(C(=O)NC(=S)N2CCNC(=O)C2)cc1Br | inconclusive [inhibitor, single point]
